Results are given in words; binding and its absence hold for the method and conditions named. For part of these data: Binding seen in cells or lysates may run through a third protein. Some results given as binding are weak or reduced against the parent protein; the word gives no strength. Sequences can lack the tags named with a protein.
B1: myc-COT1 (enzyme, UniProt P38679 1-598)
chain: MDNTNRPHLNLGTNDTRMAPNDRTYPTTPSTFPQPVFPGQQAGGSQQYNQAYAQSGNYYQQNHNDPNTGLAHQFAHQNIGSAGRASPYGSRGPSPAQRPRTSGNSGQQQTYGNYLSAPMPSNTQTEFAPAPERNPDKYGPNANNNQKKCSQLASDFFKDSVKRARERNQRQSEMEQKLGETNDARRRESIWSTAGRKEGQYLRFLRTKDKPENYQTIKIIGKGAFGEVKLVQKKADGKVYAMKSLIKTEMFKKDQLAHVRAERDILAESDSPWVVKLYTTFQDANFLYMLMEFLPGGDLMTMLIKYEIFSEDITRFYIAEIVLAIDAVHKLGFIHRDIKPDNILLDRGGHVKLTDFGLSTGFHKLHDNNYYTQLLQGKSNKPRDNRNSVAIDQINLTVSNRAQINDWRRSRRLMAYSTVGTPDYIAPEIFTGHGYSFDCDWWSLGTIMFECLVGWPPFCAEDSHDTYRKIVNWRHSLYFPDDITLGVDAENLIRSLICNTENRLGRGGAHEIKSHAFFRGVEFDSLRRIRAPFEPRLTSAIDTTYFPTDEIDQTDNATLLKAQQAARGAAAPAQQEESPELSLPFIGYTFKRFDNNFR
B2: HA-POD6 (enzyme, UniProt V5IQR8 1-928)
chain: MATLSVYGSDFLTTTKKKAIEDAKKMQTVVAEECNKSGKEAPPYQLEELIGKGSFGRVYKATDNKSNAVVAVKIIDIEESDRENPRLADTYSEFMKETSALKLLSNSGAKNINLILDVLPVGQSMWLITEYCAGGSVATLMKPTAPGGLQEKWIIPILREVAEAIFWVHKEGIIHRDIKCANVLVTETGAVQLCDFGVAGIVETKFDKRSTFIGTPHWMAPELFEPTPSYSTPVDIWAFGSMVYEIASGLPPNVMSGFNIPQLGNYIKSHAPRLEGDQYSDNLKDLVAFCLVEDPAKRPTIEQVQRHPYIFNTSSEYPTASLSNLVRGYKVWEAQGGIRKSLFAPVGAQGPSDYASTALSNDEWNFSTTVDFDRMAMDSDAQAVYDVYGHNVDFDFDEEQTRRPKPKGRRRPPPPKLLALKAPLEKLFDPNTISGYNENSRAYYGLGPTSTSEAASAPEPPKDSDLNLRQYEPSSQAALRESLIDLDASFDGNDLSQFVDMETIKAGPRGSIDYAAFNPNPDFSKPPLSDPADMPMNINRRTQDWKFPSMAAPPASAHPEMSRFPWNEERSNDSHNDNFVRPPLIHHPTDPLGFQSTGYDSMPPKPPVDNRVSVGSLIDLDESLPMPTNDFTNREYTRPSTANSDAASVSGSEIGGANPFDLERHASLYQPLPVVRSSSVREPSIYVSDDSDYARVAQAPSEEHFIGTNGRGTPDYASSVNGGGSIGNGSIGGGSIGGGSIGSRTSSRAHSRADSYSYATDDDVGGYSAGEYAESEYLGGSMDPMAMSGEGRNRSRRRPSGMRPDPDSHHPPRGYGMGGSMNGNNGTGSHGGGHHGHQVHHGHGHGQYHGHGHGHSNSQGSTDMMHMPHVPEPPRVRVMQGMANREEVRDDVMRLLASFSEHLGFANAHVNTLPVRQGRRGSEVDTSV
B3: COT1 (two-hybrid fusion) (enzyme, UniProt P38679 1-598)
chain: MDNTNRPHLNLGTNDTRMAPNDRTYPTTPSTFPQPVFPGQQAGGSQQYNQAYAQSGNYYQQNHNDPNTGLAHQFAHQNIGSAGRASPYGSRGPSPAQRPRTSGNSGQQQTYGNYLSAPMPSNTQTEFAPAPERNPDKYGPNANNNQKKCSQLASDFFKDSVKRARERNQRQSEMEQKLGETNDARRRESIWSTAGRKEGQYLRFLRTKDKPENYQTIKIIGKGAFGEVKLVQKKADGKVYAMKSLIKTEMFKKDQLAHVRAERDILAESDSPWVVKLYTTFQDANFLYMLMEFLPGGDLMTMLIKYEIFSEDITRFYIAEIVLAIDAVHKLGFIHRDIKPDNILLDRGGHVKLTDFGLSTGFHKLHDNNYYTQLLQGKSNKPRDNRNSVAIDQINLTVSNRAQINDWRRSRRLMAYSTVGTPDYIAPEIFTGHGYSFDCDWWSLGTIMFECLVGWPPFCAEDSHDTYRKIVNWRHSLYFPDDITLGVDAENLIRSLICNTENRLGRGGAHEIKSHAFFRGVEFDSLRRIRAPFEPRLTSAIDTTYFPTDEIDQTDNATLLKAQQAARGAAAPAQQEESPELSLPFIGYTFKRFDNNFR
B4: PAK kinase STE20/NCU03894 (two-hybrid fusion) (enzyme, UniProt Q7RZD3 1-954)
chain: MDGQLSLLSPTSSSSTSHSRKRLTKKQRPPSANHRTSSSFNVESLRIDAQSLDSKRSASSLRQGPNCNQSPSLARTVSVPVSVPSNAPAHTKASDLSLPRSHTTRSQSANRPYNPTQTIPTNRFILSPASSSQPQTQSPPYPSAVASTTVTSSRNKDTSKQYDPLDSCIGSFDQNKLSTDELIGAPFDGNAILSRIEATKLSAAPAPTSTTTIAHSNNISPRRVAPPPPPPPPALSRSNTDSKAARSSKPSKSPKSTISNKTMGASSFRHSASFSSAEQLPPSEKPSKSESSSSSNKRHSGDGKESRVPGMLRKKSGFSGFMNSLVGSPKKPLISAPENPVHVTHVGYDSNTGQFTGLPKEWQRLISESGITEKDRREHPQILVDVLTFYKETTEKPQEDQQLEKFHDARATDFRSPPVTGTAPLVLQTGVGYAHGPMSPMISPPASPRFPQVGHEGSFENPRAPPPVPKGPGPLPAKDINLIPSRPAPKPPAISTRPLVPPASLPAKDSGIGMPPPGDEAPMPYLPPKDNVQHMYQEEHRNRSRSNSRTNGAAPFSPVQASPLHPIATANQTAAYQQQLLQHQQEQAMAQAQAAMSGQLSRAASKRQQPTPPTSQHQHPRQPDINGAPRMPQTQGAAPQASARPRHRPRQSNAIDVVASLKRICSDGDPREIYRGFTKIGQGASGGVYTGHERGSNRLVAIKQMNLEQQPKKDLIINEILVMKESSHPNIVNFIDSYLCAGELWVVMEYMEGGSLTDVVTFNIMTEGQIASVCRETLRGLQHLHSKGVIHRDIKSDNILLSMEGNIKLTDFGFCATINEAQSKRTTMVGTPYWMAPEVVTRKEYGRKVDIWSLGIMAIEMIEGEPPYLTESPLRALWLIATNGTPHIKDEQSLSPVFRDFLYFALKVDPEKRASAHDLLRHDFMNKCVDLSTLAPLVRAAREARAQEKARKGQ
B5: POD6 (two-hybrid fusion) (enzyme, UniProt V5IQR8 1-928)
chain: MATLSVYGSDFLTTTKKKAIEDAKKMQTVVAEECNKSGKEAPPYQLEELIGKGSFGRVYKATDNKSNAVVAVKIIDIEESDRENPRLADTYSEFMKETSALKLLSNSGAKNINLILDVLPVGQSMWLITEYCAGGSVATLMKPTAPGGLQEKWIIPILREVAEAIFWVHKEGIIHRDIKCANVLVTETGAVQLCDFGVAGIVETKFDKRSTFIGTPHWMAPELFEPTPSYSTPVDIWAFGSMVYEIASGLPPNVMSGFNIPQLGNYIKSHAPRLEGDQYSDNLKDLVAFCLVEDPAKRPTIEQVQRHPYIFNTSSEYPTASLSNLVRGYKVWEAQGGIRKSLFAPVGAQGPSDYASTALSNDEWNFSTTVDFDRMAMDSDAQAVYDVYGHNVDFDFDEEQTRRPKPKGRRRPPPPKLLALKAPLEKLFDPNTISGYNENSRAYYGLGPTSTSEAASAPEPPKDSDLNLRQYEPSSQAALRESLIDLDASFDGNDLSQFVDMETIKAGPRGSIDYAAFNPNPDFSKPPLSDPADMPMNINRRTQDWKFPSMAAPPASAHPEMSRFPWNEERSNDSHNDNFVRPPLIHHPTDPLGFQSTGYDSMPPKPPVDNRVSVGSLIDLDESLPMPTNDFTNREYTRPSTANSDAASVSGSEIGGANPFDLERHASLYQPLPVVRSSSVREPSIYVSDDSDYARVAQAPSEEHFIGTNGRGTPDYASSVNGGGSIGNGSIGGGSIGGGSIGSRTSSRAHSRADSYSYATDDDVGGYSAGEYAESEYLGGSMDPMAMSGEGRNRSRRRPSGMRPDPDSHHPPRGYGMGGSMNGNNGTGSHGGGHHGHQVHHGHGHGQYHGHGHGHSNSQGSTDMMHMPHVPEPPRVRVMQGMANREEVRDDVMRLLASFSEHLGFANAHVNTLPVRQGRRGSEVDTSV
B6: MAK2 (two-hybrid fusion) (enzyme, UniProt V5IKE7 1-352)
chain: MSSAQRGGARKISFNVSEQYDIQDVVGEGAYGVVCSAVHKPSGQKVAIKKITPFDHSMFCLRTLREMKLLRYFNHENIISILDIQKPRSYETFNEVYLIQELMETDMHRVIRTQELSDDHCQYFIYQTLRALKAMHSANVLHRDLKPSNLLLNANCDLKVCDFGLARSAASQEDNSGFMTEYVATRWYRAPEIMLTFKEYTKAIDVWSVGCILAEMLSGKPLFPGKDYHHQLTLILDVLGTPTMEDYYGIKSRRAREYIRSLPFKKKVPFRTLFPNTSELALDLLEKLLAFNPVKRITVEEALKHPYLEPYHDPDDEPTAPPIPEEFFDFDKHKDNLSKEQLKQLIYQEIMR

target: T1, HYM1-GFP (GFP-tagged HYM1 expressed ectopically at the his-3 locus) (N. crassa) (UniProt Q1K4S9); assay: co-IP; anti-GFP immunoprecipitation from N. crassa cell extracts of myc-cot-1;HA-pod-6 + hym-1-gfp::his-3; blots for myc-COT1 and HA-POD6
T1 sequence: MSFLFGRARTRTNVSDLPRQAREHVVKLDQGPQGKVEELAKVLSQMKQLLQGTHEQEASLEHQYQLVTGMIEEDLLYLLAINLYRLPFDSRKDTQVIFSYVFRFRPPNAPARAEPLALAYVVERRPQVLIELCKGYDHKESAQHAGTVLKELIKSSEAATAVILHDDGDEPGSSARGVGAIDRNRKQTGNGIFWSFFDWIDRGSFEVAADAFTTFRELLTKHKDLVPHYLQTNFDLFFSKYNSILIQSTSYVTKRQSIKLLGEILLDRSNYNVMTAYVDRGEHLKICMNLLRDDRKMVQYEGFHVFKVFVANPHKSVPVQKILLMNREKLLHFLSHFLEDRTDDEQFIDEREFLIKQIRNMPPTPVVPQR

Q: How did the binding turn out when B1 was run?
A: The binding was “binds”.

Q: B2 was tested. Which binding did it give?
A: The binding was “binds”.

target: T2, HYM1 (two-hybrid fusion) (N. crassa) (UniProt Q1K4S9); assay: two-hybrid; Matchmaker Two-Hybrid system 3 (Clontech); pGBKT7 (GAL4 DNA-binding domain) and pGADT7 (GAL4 activation domain) fusions co-expressed in S. cerevisiae AH109; growth on SD medium lacking adenine, histidine, leucine and tryptophane
T2 sequence: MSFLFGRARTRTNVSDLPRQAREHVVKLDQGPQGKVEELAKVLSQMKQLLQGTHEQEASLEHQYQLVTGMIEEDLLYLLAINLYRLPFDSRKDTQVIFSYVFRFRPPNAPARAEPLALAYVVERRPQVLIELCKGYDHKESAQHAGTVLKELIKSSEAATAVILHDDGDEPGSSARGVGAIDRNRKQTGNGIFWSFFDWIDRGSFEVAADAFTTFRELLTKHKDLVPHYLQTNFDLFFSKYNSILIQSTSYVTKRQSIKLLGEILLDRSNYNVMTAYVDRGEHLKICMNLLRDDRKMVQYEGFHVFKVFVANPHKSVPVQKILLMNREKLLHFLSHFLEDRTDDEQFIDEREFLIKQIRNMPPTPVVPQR

Q: For B3, which binding is on record?
A: The binding was “binds”.

Q: B4 was tested. Which binding did it give?
A: Its binding is “binds”.

Q: Which binding does the source give for B5 here?
A: The binding was “binds”.

Q: B6 was tested. Which binding did it give?
A: The binding was “no binding”.

— paper PMC3447951
